In patent US11433140B2, “Specific antibody drug conjugates (ADCs) having KSP inhibitors” (Bayer Pharma Aktiengesellschaft, priority 2016, dated 2022):

What was measured:
REC-1 = assay: Growth inhibition of experimental tumours in the mouse, REC-1 xenograft; assay type: in vivo, female NMRI-nude mice; conditions: REC1, 10 mg/kg i.v.
Experimental: (§1) Human tumour cells which express the antigen for the antibody-drug conjugate are inoculated subcutaneously into the flank of immunosuppressed mice, for example NMRi nude or SCID mice. 1-10 million cells are detached from the cell culture, centrifuged and resuspended in medium or medium/matrigel. The cell suspension is injected under the skin of the mouse.
(§2) Within a few days, a tumour grows. Treatment is commenced after the tumour is established, at a tumour size of approximately 40 mm^2. To examine the effect on larger tumours, treatment may be initiated only at a tumour size of 50-100 mm^2.
(§3) Treatment with the ADCs is carried out via the intravenous (i.v.) route into the tail vein of the mouse. The ADC is administered in a volume of 5 ml/kg.
(§4) The treatment protocol depends on the pharmacokinetics of the antibody conjugate. Treatment was effected three times in succession every seventh day as the standard. For a quick assessment, a protocol with a single treatment may also be suitable. However, the treatment may also be continued, or a second cycle of further treatment days may follow at a later time.
(§5) As standard, 8 animals are used per treatment group. […]
(§6) During the experiment, the tumour area is measured regularly in two dimensions (length/width) using a caliper. The tumour area is determined as length×width. […]

target-positive cells = assay: Co-localization assay of the anti-CD123 antibodies with lysosome-specific label (FACS/image analysis); assay type: cell-based; conditions: CypHer5E-labelled antibody 20 μg/ml, CytoPainter LysoGreen lysosome stain
Experimental: Owing to the linker, the active metabolite of the antibody-drug conjugate is generated by lysosomal degradation. Accordingly, intracellular trafficking after internalization has taken place is of essential importance. Studies about the co-localization of the antibody using labels specific for the lysosomal organelle (e.g. surface molecules or small GTPases) allow the selection of antibodies having the desired profile. To this end, target-positive cells (5×10^4/well) in a total volume of 100 μl were sown into a 96-MTP (Greiner bio-one, CELLSTAR, 650 180, U-bottom). Following addition of the CypHer5E-labelled anti-target antibody (final concentration 20 μg/ml), the batches (duplicates per point in time) were incubated at 37° C. for 30 min, 2 h and 6 h in an incubator (5% CO2). 30 min prior to the end of the chosen incubation time, the lysosome-specific label was added to the batches to be examined. The lysosomes were stained with CytoPainter LysoGreen indicator reagent (final concentration 1:2000; abcam, ab176826). After incubation, 200 μl of ice-cold FACS buffer (DULBECCO'S PBS, Sigma-Aldrich, No. D8537+3% FBS heat inactivated FBS, Gibco, No. 10500-064) were added and the cell suspension was centrifuged at 400×g and 4° C. for 5 min. […] Co-localization was evaluated using a special software (co-localization software IDEAS Application v6.1).

MOLM-13 = assay: Growth inhibition of experimental tumours in the mouse, MOLM-13 xenograft; assay type: in vivo, female NMRI-nude mice; conditions: MOLM-13, 5 mg/kg i.v., Q7d × 2, day 14
Experimental: as §1, §2, §3, §4, §5, §6

MV-4-11 = assay: Growth inhibition of experimental tumours in the mouse, MV-4-11 xenograft; assay type: in vivo, female NMRI-nude mice; conditions: MV-4-11, 5 mg/kg i.v., Q7d × 2, day 20
Experimental: as §1, §2, §3, §4, §5, §6

B1: R1x-9024: reference ADC R1 (from intermediate F104) with anti-CXCR5 antibody TPP-9024, DAR 3.7 (conjugate)
heavy: EVQLVESGGGLVQPGKSLKLSCSASGFTFSTSGMHWFRQAPGKGLDWVAYISSSSGFVYADAVKGRFTISRDNAQNTLYLQLNSLKSEDTAIYYCARSEAAFWGQGTLVTVSS[letters of human IgG1 constant region not shown]
light: DIVLTQAPRSVSVTPGESASISCRSNKSRLSRMGITPLNWYLQKPGKSPQLLIYRMSNLASGVPDRFSGSGSETDFTLKISKVETEDVGVYYCAQFLEYPPTFGSGTKLEIKRTVAAPSVFIFPPSDEQLKSGTASVVCLLNNFYPREAKVQWKVDNALQSGNSQESVTEQDSKDSTYSLSSTLTLSKADYEKHKVYACEVTHQGLSSPVTKSFNRGEC
REC-1; Q7d × 3, day 23
  T/C area: 0.48

B2: 1x-9574: ADC of Examples 1 (from Intermediate F325) with anti-CXCR5 antibody TPP-9574, DAR 4.1 (conjugate)
heavy: EVQLVESGGGLIQPGGSLRLSCAASGFTFSTSGMHWFRQAPGKGLEWVAYISSSSGFVYAD[letters of about 20 residues not shown]MNSLRAEDTAVYYCARSEAAFWGQGTLVTVSS[letters of human IgG1 constant region not shown]
light: DIVMTQSPLSLPVTPGEPASISCRSQKSRLSRMGITPLNWYLQKPGQSPQLLIYRMSNLASGVPDRFSGSGSGTDFTLKISRVEAEDVGVYYCAQFLEYPPTFGQGTKLEIKRTVAAPSVFIFPPSDEQLKSGTASVVCLLNNFYPREAKVQWKVDNALQSGNSQESVTEQDSKDSTYSLSSTLTLSKADYEKHKVYACEVTHQGLSSPVTKSFNRGEC
REC-1; Q7d × 3, day 24
  T/C area: 0.20

B3: TPP-8988: humanized anti-CD123 antibody, heavy chain SEQ ID NO: 19, light chain SEQ ID NO: 20 (antibody)
heavy: EVQLLESGGGLVQPGGSLRLSCAVSDYSITSGYYWNWIRQAPGKKLEWMGYISYDGSNNYNPSLKNGRITISRDTSKNTFYLQMNSLRAEDTAVYYCARGEGFYFDSWGQGTLVTVSS[letters of human IgG1 constant region not shown]
light: EIVLTQSPGTLSLSPGERATLSCKSSQSLFFGSTQKNYLAWYQQKPGQAPRLLIYWASTRESGIPDRFSGSGSGTDFTLTISRLEPEDFAVYYCQQYYNYPWTFGQGTKLEIKRTVAAPSVFIFPPSDEQLKSGTASVVCLLNNFYPREAKVQWKVDNALQSGNSQESVTEQDSKDSTYSLSSTLTLSKADYEKHKVYACEVTHQGLSSPVTKSFNRGEC
modifications: Antibody Sequence
target-positive cells
  Co-localization [%]: 41%

B4: 1c-8988: ADC of Examples 1 (from Intermediate F325) with anti-CD123 antibody TPP-8988, DAR 3.5 (conjugate)
heavy: B3 heavy
light: B3 light
MOLM-13
  T/C area: 0.33
MV-4-11
  T/C area: 0.16
